For 219 sequences, binding signal results are on record in publication PMC10668032.

Some of the results follow. At the low end of the ranking, values are background and their order means little.

In this experiment the target is SIX1 homeodomain (reference allele) (UniProt Q15475). As to the kind of experiment: universal protein binding microarray. Particulars: Universal all-10-mer PBM (8x60K, AMADID 030236), 300 nM GST-tagged protein, Alexa Fluor 488 anti-GST; buffer, salt, pH and temperature not stated; high values mean tight binding; most listed sequences are background and not binding sites; double strand, one strand shown.
GCATTGAC: the binding signal is -0.0541 E-score. For the sequence TAAAAGGA, the binding signal is -0.0906 E-score. As for CCGGCGCC, the binding signal is -0.132 E-score. For GTACTAAC, the binding signal is -0.105 E-score. Consider AAAGTAGT, for which the binding signal was -0.105 E-score.

For CATGGTGG, the binding signal is -0.0573 E-score. Consider TAGATAAA, for which the binding signal is 0.225 E-score.

In the case of ACTCGTAG, the binding signal was -0.0708 E-score. Regarding GTTTGGTA, the binding signal was 0.147 E-score.

As for CTATAAGC, the binding signal was 0.0134 E-score. Consider ACGGCACT, for which the binding signal is -0.0273 E-score.

In the case of GCGGATTA, the binding signal turned out to be 0.318 E-score. As for AGTGTCCC, the binding signal was determined as 0.0828 E-score. Next, GGCAACAA: -0.0385 E-score; AATAAGAG: -0.0077 E-score; ATTCCACG: -0.024 E-score.

As for CATGGCTC, the binding signal was -0.0285 E-score.

In the case of GTCGAACA, the binding signal is -0.179 E-score.

For the sequence AAATAAAA, the binding signal was -0.236 E-score. Consider CATGTATA, for which the binding signal turned out to be 0.223 E-score. As to TAAGGACA, the binding signal was -0.157 E-score. As to TAATGGCA, the binding signal was -0.157 E-score. Next, CGGGTATA: 0.365 E-score; ACGGGACG: -0.292 E-score; AATGCCGC: -0.185 E-score.

Regarding CCCTAACA, the binding signal is -0.0426 E-score.

For the sequence CACCCATC, the binding signal stood at 0.145 E-score.

Regarding CCACAGAC, the binding signal was -0.147 E-score.

As for GGCTCACC, the binding signal worked out at 0.096 E-score. Consider CATGAGCG, for which the binding signal is -0.214 E-score. The result for CTTACTCA reads 0.0665 E-score; that for GTATGTTA, 0.113 E-score; that for GGAAGGGA, -0.246 E-score. Next, CCGGGCGA: 0.0346 E-score; CAAATAGG: 0.012 E-score.

Consider TTCCCGAA, for which the binding signal is -0.104 E-score. For AATCGAAA, the binding signal is -0.249 E-score. Turning to GATTCTGC, the binding signal is 0.0554 E-score. As to CGCACAGC, the binding signal is -0.0487 E-score. Consider CGGATACG, for which the binding signal stood at 0.387 E-score. Take GCTACCTA: the binding signal was -0.136 E-score.

Consider CTGCGATC, for which the binding signal worked out at 0.322 E-score. Next, AGGTTGTC: -0.158 E-score; ACGGTCAA: -0.133 E-score; GGCGGGAA: -0.0964 E-score. AAATTCTG: the binding signal worked out at 0.0126 E-score. Next, GCGCTGGA: -0.218 E-score. For GACATTCA, the binding signal is -0.0929 E-score. With GTCGTAAC, the binding signal is -0.108 E-score. For ATATCGCC, the binding signal is 0.441 E-score.

Take CTCCCTTC: the binding signal is -0.0355 E-score.

With CAAGTCAG, the binding signal is -0.218 E-score. With CTGTATGA, the binding signal was found to be 0.187 E-score. As to AGTCGGGA, the binding signal is -0.0706 E-score. Consider CCAGACGG, for which the binding signal was -0.0166 E-score. For CCCTACTC, the binding signal was determined as 0.14 E-score. As to AGCCTAAA, the binding signal was -0.12 E-score.

With CAGAAAGA, the binding signal is -0.116 E-score.

For the sequence AAGGCATC, the binding signal came out at 0.00281 E-score. Next, CGTGAGAA: 0.147 E-score.

In the case of CGACCCAG, the binding signal is -0.0309 E-score. Consider ATGGACTC, for which the binding signal is -0.209 E-score.

With GAGATTCA, the binding signal was -0.0703 E-score.

With CGCCACAG, the binding signal is 0.05 E-score.

As for TAGTGTGA, the binding signal was 0.184 E-score. With TAGAATGA, the binding signal is 0.0388 E-score. Next, ACTCCCTA: -0.177 E-score.

For CAATTGAG, the binding signal stood at 0.103 E-score. Next, GTTACGAA: -0.236 E-score; CGTCATTC: 0.0143 E-score; AACACATG: -0.283 E-score. Turning to ACCAATAC, the binding signal is 0.282 E-score. As to AAAGTCAA, the binding signal was -0.271 E-score. As for GACTCCCC, the binding signal is -0.0447 E-score. Turning to CCGCGTAC, the binding signal was -0.107 E-score. The result for CGTACGGA reads -0.0537 E-score; that for AGGCTGAG, -0.00774 E-score.

On to CCGATACC, for which the binding signal amounted to 0.478 E-score. On to CACTGAAA, for which the binding signal is -0.0676 E-score. Take CGCGCAAC: the binding signal was -0.196 E-score. Take CTGCAGGA: the binding signal was -0.0628 E-score.

As for ACCGCACC, the binding signal is 0.00277 E-score. As for CGATTAAC, the binding signal amounted to 0.24 E-score. The result for GCAAGTCC reads -0.174 E-score; that for GTGTGTTA, -0.136 E-score. For the sequence AGCAAATA, the binding signal is -0.0272 E-score. As for AGCGTCGG, the binding signal was -0.136 E-score.

As for AGACGGGG, the binding signal came out at 0.111 E-score. As for AGGGTATG, the binding signal was determined as 0.28 E-score. Regarding ATCGCGCG, the binding signal was 0.213 E-score.

Turning to CCTAAGGA, the binding signal is 0.146 E-score. Next, GCGAAGTA: -0.108 E-score. Next, AAAAATGC: -0.00573 E-score; CAGATATC: 0.456 E-score; TCGCTGCA: -0.111 E-score.

With GGGGAGGA, the binding signal was determined as 0.166 E-score. The result for CCCGCCAA reads 0.0759 E-score; that for AAAACCTA, -0.0904 E-score; that for ACCCGCCT, 0.0095 E-score. The result for AGGATGGA reads 0.079 E-score; that for CTCAAGAG, -0.169 E-score; that for ATTGCTCA, -0.0366 E-score. As to TCACACGA, the binding signal came out at 0.0662 E-score. Regarding TACTAACA, the binding signal was -0.0347 E-score. Next, AGCATCCG: 0.13 E-score. Regarding ATGGCAAG, the binding signal was -0.259 E-score. In the case of GACTCGTA, the binding signal is -0.0387 E-score.

On to ACAGTTTA, for which the binding signal is -0.263 E-score. Take GTGCGGAA: the binding signal was -0.0385 E-score.

As to ATTGCACG, the binding signal is -0.0424 E-score. With CCTCGCAC, the binding signal is -0.171 E-score. Take CTAATACC: the binding signal is 0.285 E-score. Consider AAAAAAGC, for which the binding signal was -0.424 E-score. For the sequence ATGGGTGG, the binding signal came to 0.0141 E-score.

CGCTTGGC: the binding signal was -0.0972 E-score. For ATTAGATG, the binding signal was 0.171 E-score. Take ACCACATG: the binding signal came to 0.103 E-score. On to ACCCGTAC, for which the binding signal is 0.0217 E-score. Take AAGGTGCG: the binding signal is -0.081 E-score. For the sequence CGGCCGGC, the binding signal is -0.0129 E-score.

In the case of ACCCTTGA, the binding signal was -0.0204 E-score. Take AATCCGAG: the binding signal was 0.237 E-score.

Consider CGAGAGAG, for which the binding signal was 0.00996 E-score. Turning to ACATCACC, the binding signal is -0.115 E-score.

Consider ACGACAGC, for which the binding signal was -0.211 E-score. On to ACGCTAAT, for which the binding signal was -0.135 E-score. For GCTAACGA, the binding signal is -0.00797 E-score. As for GGGAATTA, the binding signal was -0.153 E-score. Next, AAATAGGA: -0.00121 E-score; GATTAGGA: 0.101 E-score; CCGGGGTC: 0.15 E-score. With ATGCCCTG, the binding signal came to 0.114 E-score. Take CCTCCATC: the binding signal is -0.0753 E-score. On to TTACGCAA, for which the binding signal is -0.117 E-score. For the sequence ACCACAGT, the binding signal was found to be 0.119 E-score.

Turning to GGTGCTAA, the binding signal was -0.0565 E-score. Next, CGCTCACG: -0.0419 E-score. The result for TACCCGTA reads 0.313 E-score; that for AAGTCGAG, 0.00992 E-score; that for ACGATAAG, 0.0833 E-score.

For ATGATCAG, the binding signal is 0.229 E-score. As to ACTGTTAA, the binding signal is -0.142 E-score. For the sequence AGATGAGG, the binding signal turned out to be 0.148 E-score. Regarding ACTCAACT, the binding signal was -0.0858 E-score. For the sequence GGAAGCGA, the binding signal is -0.133 E-score. With AATTTGCC, the binding signal is -0.18 E-score. As to ACGCCTGG, the binding signal is -0.0104 E-score. As for AACGAAGG, the binding signal was -0.266 E-score. The result for AACACACG reads -0.206 E-score; that for TCGGGGAA, 0.181 E-score; that for AATCCAGC, 0.0665 E-score. Take CGAAGAAG: the binding signal is -0.14 E-score. In the case of CCGCGGAG, the binding signal is 0.144 E-score. AAATCAGA: the binding signal was -0.0194 E-score. Next, CGATCAAC: 0.0445 E-score; CACCCTAC: 0.102 E-score. For ATTCTAGC, the binding signal is 0.0421 E-score. For the sequence ACCGTTCA, the binding signal is -0.0349 E-score. With ACCGAATC, the binding signal amounted to 0.0775 E-score. The result for AATTGCGG reads -0.104 E-score; that for CAAGAAGG, -0.000455 E-score.

With ACAGGAAA, the binding signal was 0.00575 E-score.

As for CCTAGCAA, the binding signal was -0.0498 E-score. For CATACTGG, the binding signal came to 0.128 E-score. For TTCCGGAA, the binding signal is -0.126 E-score. As to CAGGAAGC, the binding signal is -0.1 E-score. With ACGGCGCT, the binding signal is -0.279 E-score. Next, ACCGTATG: 0.129 E-score; CCGATCAG: 0.24 E-score.

For CGCTGTGC, the binding signal is -0.26 E-score. In the case of AGCCTGGG, the binding signal amounted to 0.106 E-score. The result for TTGGCCAA reads -0.225 E-score; that for GCTTCAAC, -0.189 E-score; that for AACAGGGT, -0.134 E-score.

On to CCTTGATA, for which the binding signal was 0.317 E-score. With TAGCACAA, the binding signal was -0.189 E-score.

GGTACTGA: the binding signal was -0.0408 E-score. For the sequence CTGGTTTC, the binding signal was -0.0397 E-score. For the sequence GTTGTCGA, the binding signal is -0.176 E-score. In the case of GTCATAAC, the binding signal was -0.0288 E-score.

As to AGACGTCA, the binding signal was -0.0183 E-score. Take AGTGCCAT: the binding signal is -0.0752 E-score.

Take GAAAACGA: the binding signal was -0.0291 E-score. With ACAAAACT, the binding signal is -0.0831 E-score. Turning to AATCCGTC, the binding signal was 0.234 E-score. In the case of CTCACCGC, the binding signal was found to be 0.00241 E-score.

As to ACGCCGAG, the binding signal is -0.0319 E-score. Turning to GACGAGCC, the binding signal was 0.00645 E-score. Take AAGCCAAT: the binding signal was -0.0182 E-score. Turning to AGTACCCG, the binding signal came to 0.0757 E-score. Take CTAGCAAC: the binding signal is -0.11 E-score. Take ACAAGCAG: the binding signal was -0.0339 E-score. The result for AACTCCTG reads -0.116 E-score; that for AGCTGCCA, -0.181 E-score; that for CTCCCACC, -0.221 E-score. For GGACCGGA, the binding signal was -0.0419 E-score. Next, GAGCCATA: 0.183 E-score; GGCAGTAC: -0.237 E-score; CGGAAACG: -0.103 E-score.

For the sequence CGAGAGCC, the binding signal is -0.192 E-score.

Consider CAAACTAC, for which the binding signal was -0.11 E-score.

As for GCCCACAC, the binding signal was -0.163 E-score.

In the case of CTGATTTA, the binding signal is -0.0655 E-score. On to TCCGCAAA, for which the binding signal was -0.107 E-score. For CCATTCAG, the binding signal is -0.0601 E-score. Regarding AAGGTCCC, the binding signal is -0.222 E-score. With AGAGATCC, the binding signal is 0.369 E-score. Next, GCCAGTAC: -0.146 E-score; AAAGTCAG: -0.33 E-score. With CGGTTTAA, the binding signal is -0.00179 E-score.

Take AACGTAGG: the binding signal is -0.167 E-score. CAACACTC: the binding signal came out at 0.0138 E-score.

With ATTTGTTA, the binding signal is -0.159 E-score. Regarding CACTCGCG, the binding signal is -0.0828 E-score. Consider CTCAAGAC, for which the binding signal was -0.112 E-score. AATGGTAT: the binding signal is 0.381 E-score.

For the sequence GCAGGGCA, the binding signal was -0.00363 E-score. On to CCTCAGAC, for which the binding signal stood at 0.0208 E-score. The result for AGTATAAA reads 0.148 E-score.
